± gives the standard deviation of the averaged measurements. In all, about 33,000 sequences were measured (“E-score (dimensionless, -0.5 to 0.5)”: median about -0.049, highest 2% from about 0.37 on). The list shows a part of the results.
Test system: T1, PmTbr T-box DNA-binding domain (GST fusion)
T1 sequence: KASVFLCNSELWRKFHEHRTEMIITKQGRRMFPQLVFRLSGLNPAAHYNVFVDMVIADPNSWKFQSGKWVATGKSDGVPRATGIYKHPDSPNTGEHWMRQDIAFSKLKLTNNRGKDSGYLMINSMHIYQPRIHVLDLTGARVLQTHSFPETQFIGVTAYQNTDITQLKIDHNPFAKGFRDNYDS
Assay: PBM E-score of 8-mer (E-score (dimensionless, -0.5 to 0.5)); Tbr is Tbrain of the sea star Patiria miniata (Pm) or the sea urchin Strongylocentrotus purpuratus (Sp); higher = stronger binding preference; most listed sequences are background and not binding sites
Details: the construct has about 5 more residues each side
Summary of the method: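 GST-fused Tbr T-box DNA-binding domains (the whole T-box plus about five flanking residues) were expressed in BL21 E. coli at 20 °C and purified by glutathione affinity chromatography. Universal Agilent oligonucleotide arrays were made double-stranded by primer extension, incubated with 200 nM protein in PBS (pH 7.5), then scanned and quantified. Every ungapped 8-mer was scored from probe intensities. The Universal PBM Analysis Suite gave each word an enrichment E-score, averaged over duplicate arrays.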

Sequence	PBM E-score of 8-mer
AGACCCGC	0.0457 ± 0.026
GATCAGCA	0.11 ± 0.036
TAAATCAA	-0.136 ± 0.033
CAGTTCGC	0.248 ± 0.008
GAAATCAA	0.0832 ± 0.0069
AATAAAGC	-0.0059 ± 0.09
CATATTGG	0.00571 ± 0.035
CGATAGAA	-0.11 ± 0.029
CTTGGCGC	0.294 ± 0.049
TACCTCTA	-0.0582 ± 0.013
CTCCGAGA	-0.239 ± 0.025
CAGGGAGA	-0.155 ± 0.026
ACGACGGA	-0.0461 ± 0.044
AAGTTGGG	-0.308 ± 0.011
AACTCTGC	0.146 ± 0.075
GGAAACTA	-0.121 ± 0.022
ATTTCGCG	0.4125 ± 0.00097
ATTTCAAC	0.112 ± 0.065
CGAGGCAG	-0.0585 ± 0.057
TCATGCGA	0.121 ± 0.039
ATTCGTTC	-0.0991 ± 0.007
GAAAACTC	-0.187 ± 0.12
ATCTGAGC	-0.102 ± 0.0091
CTGAGATC	-0.0112 ± 0.012
AGAAGGAC	-0.222 ± 0.04

Sequence	PBM E-score of 8-mer
CAGTCTTA	-0.181 ± 0.075
GGCCCGCC	-0.1 ± 0.0086
GTTCATTA	-0.174 ± 0.049
GTTTAGAA	-0.119 ± 0.0041
GAGACCCA	-0.0814 ± 0.019
ACCAGGTG	0.369 ± 0.028
AACTAAGC	-0.276 ± 0.029
GAAAATAA	-0.0661 ± 0.086
CATTGCTC	-0.171 ± 0.039
CCACAGGG	0.0186 ± 0.043
CTGGCGAA	0.00558 ± 0.064
AAGTCGAG	0.139 ± 0.037
AGAAGGTA	-0.2003 ± 0.00059
AGTTGAGC	-0.174 ± 0.045
CGTGGTCC	-0.274 ± 0.016
CCTATGAC	-0.0506 ± 0.12
ATCAGTGA	0.137 ± 0.023
GGAGTTAA	-0.103 ± 0.0049
AAAATGCT	-0.21 ± 0.14
CGATGTCC	-0.273 ± 0.085
CAGGGGTA	-0.3236 ± 0.00049
CGCTAGCG	0.226 ± 0.067
AACCTTGT	-0.137 ± 0.028
ACCACTAG	0.0294 ± 0.1
ACCGTCAT	0.0246 ± 0.048

Sequence	PBM E-score of 8-mer
CGGCCCAG	-0.3 ± 0.013
CCTCGACG	0.0979 ± 0.034
TCTTCCCA	0.114 ± 0.031
AAGATGCT	-0.255 ± 0.015
GCGACAGC	0.257 ± 0.055
AAGAATGA	-0.165 ± 0.067
CCCGTCCG	-0.0884 ± 0.029
CCAATCCA	0.0156 ± 0.023
ACTCCAGC	-0.321 ± 0.02
GACTCCCC	-0.275 ± 0.01
GCGGCGTA	-0.222 ± 0.042
AACCCCAC	-0.18 ± 0.0053
AACCCCAT	0.0259 ± 0.0045
CAAGCACG	-0.00962 ± 0.075
ACATGGCA	-0.0575 ± 0.011
ACATTGTG	0.137 ± 0.056
AAACACGG	-0.0366 ± 0.031
ACGCGAAG	0.18 ± 0.019
AGAGGGGG	-0.146 ± 0.042
ATTAATTA	-0.106 ± 0.11
AGGAGTGA	0.23 ± 0.019
AAACTACC	-0.213 ± 0.0037
CGTTTCGA	-0.0391 ± 0.05
ACGTGGCC	-0.0508 ± 0.0038
CAACCCGA	0.142 ± 0.088

Sequence	PBM E-score of 8-mer
GTAGGAAA	-0.0915 ± 0.041
GCTCCGTA	-0.00898 ± 0.025
ATATATAC	-0.1216 ± 0.00046
AGCTCCCG	-0.141 ± 0.045
CATTCAAA	-0.13 ± 0.052
ATGCAACA	0.0352 ± 0.063
CACAGTCG	0.1345 ± 0.0012
TATATCCA	-0.177 ± 0.035
AACCAGGG	-0.105 ± 0.052
GTGTCAAC	0.466 ± 0.007
AGAATTTG	-0.0367 ± 0.037
AAAGCTGG	0.0741 ± 0.016
AACCCAGC	-0.112 ± 0.039
GCCTATAA	-0.0939 ± 0.0041
GCGGACAC	0.253 ± 0.011
GCCTCAGA	-0.241 ± 0.039
CAACCCCG	0.0625 ± 0.04
CGAACTCC	-0.0375 ± 0.092
AATTGTCT	-0.25 ± 0.003
AGGGTTGG	-0.175 ± 0.032
CAATTTTA	-0.0591 ± 0.15
TACCGATA	-0.13 ± 0.018
CTTCGCAC	0.454 ± 0.019
TGGAACAA	-0.247 ± 0.032
AATGCGCA	-0.0568 ± 0.095

Sequence	PBM E-score of 8-mer
AGTTACGG	-0.239 ± 0.0068
GTCTCATA	-0.0732 ± 0.012
CAGACAGC	0.0475 ± 0.042
GTGCGTAA	0.0926 ± 0.027
ACAAGAGC	0.0118 ± 0.045
ATGTATTG	0.0546 ± 0.12
AATTCCTG	-0.172 ± 0.024
AACAATAC	-0.091 ± 0.02
TCACCACA	0.204 ± 0.054
ATTACAAA	-0.159 ± 0.11
CAGGTATC	0.0923 ± 0.0027
CATTTTTC	-0.00057 ± 0.056
AGACCCTA	-0.257 ± 0.036
CAAGCCAC	0.042 ± 0.037
AAGTCTTC	-0.0063 ± 0.08
AAATACGC	0.0362 ± 0.0033
ATTCAGCG	-0.0915 ± 0.02
ACAATTCG	0.211 ± 0.022
AGATGTTC	0.0612 ± 0.07
GACCCACA	-0.123 ± 0.074
AAATCCGC	0.111 ± 0.018
CGGCACAA	-0.139 ± 0.13
ATACGAAA	-0.073 ± 0.034
CCGCCCGA	0.0216 ± 0.052
AAATCGAG	-0.00044 ± 0.0066

Sequence	PBM E-score of 8-mer
ACCAGGGG	0.0176 ± 0.0056
GGTTTGTA	-0.229 ± 0.036
ACTAATAC	0.034 ± 0.01
CGGCCTTC	-0.147 ± 0.021
CCATGTAC	-0.0752 ± 0.0069
CGCTGCAC	0.129 ± 0.023
GCCGTAAC	-0.075 ± 0.028
CTGTTAAA	0.23 ± 0.015
CAGCCGGA	-0.00386 ± 0.12
AATACTGC	-0.245 ± 0.043
GCCCACAA	-0.109 ± 0.0087
ACGGCACC	0.258 ± 0.01
ACTCCTTA	0.058 ± 0.053
CATTCCTA	-0.31 ± 0.012
TCGAATCA	0.103 ± 0.044
AAGTATAA	-0.154 ± 0.16
GTGCCGCA	0.173 ± 0.018
TCATTCCA	-0.257 ± 0.065
AGCTCGAA	0.0841 ± 0.048
CAATGGCG	0.0732 ± 0.042
TCGAGGCA	-0.0529 ± 0.096
AAAAGCGC	0.193 ± 0.066
GAAATGGC	0.0945 ± 0.033
ACCTAAGT	0.0966 ± 0.0054
AACTAACC	0.0484 ± 0.11

Sequence	PBM E-score of 8-mer
ATTGTCAA	0.248 ± 0.039
CGAGAGCC	0.018 ± 0.017
CAGTTACC	-0.147 ± 0.01
GATAAATC	-0.0393 ± 0.073
ACGGGACT	-0.152 ± 0.013
ACGCCGCA	0.069 ± 0.059
TCCCTCCA	-0.0787 ± 0.00028
CAGCGGTA	-0.061 ± 0.018
CATAGAAG	-0.156 ± 0.11
AGCCTAGA	-0.122 ± 0.045
CGTAGGGC	-0.154 ± 0.0065
AATTGACA	0.296 ± 0.065
TGCTCACA	0.306 ± 0.011
AGTGTTTC	0.134 ± 0.066
AGTTGAAC	0.00736 ± 0.035
ATACTCGG	-0.0427 ± 0.15
AAGAATAC	-0.123 ± 0.032
GACAATTA	0.0502 ± 0.026
ACGAGGCG	0.246 ± 0.048
CCGAGGAG	0.0278 ± 0.017
CGGAGTAG	-0.217 ± 0.066
AGATAGCT	-0.0197 ± 0.1
ACTGTGTC	0.192 ± 0.03
ACGAACAA	-0.00251 ± 0.029
AATTAGGG	-0.114 ± 0.066

Sequence	PBM E-score of 8-mer
CGGGGACG	-0.0777 ± 0.013
AGTGTAAC	0.264 ± 0.072
GAAGAATA	-0.147 ± 0.083
GCCACACA	0.279 ± 0.031
CACGCACA	0.106 ± 0.087
AGGGAGCC	-0.103 ± 0.015
ACAATCAC	0.2 ± 0.034
CAATGGTA	-0.00848 ± 0.0096
CTGGCTAA	-0.0157 ± 0.044
GCAGGCGC	0.263 ± 0.0029
GCGCACGC	0.117 ± 0.027
ATTCGAAC	-0.16 ± 0.013
GACTCTGA	-0.0201 ± 0.024
GTCGGGGA	-0.0624 ± 0.0023
TGGATGAA	-0.246 ± 0.0051
ACTTACGC	0.176 ± 0.01
CGCCCCCG	-0.06 ± 0.065
AAGGCCCC	-0.218 ± 0.0061
ACCAACCG	-0.0999 ± 0.013
GCGAGGCC	0.144 ± 0.053
GACCAGAA	-0.0347 ± 0.081
GGGCCTTA	-0.208 ± 0.073
GCCGGGCC	-0.107 ± 0.06
ACGAATAA	-0.0186 ± 0.036
AGCCCCCA	-0.224 ± 0.029

Sequence	PBM E-score of 8-mer
TCCTTGCA	0.0104 ± 0.024
AGGTCTCG	0.0121 ± 0.033
GTTTCGAA	-0.0129 ± 0.14
GCAGAACA	-0.158 ± 0.046
GTACGAAC	-0.0755 ± 0.01
AGATATCC	-0.168 ± 0.052
AAATGATT	-0.165 ± 0.081
ATGTCAGA	-0.162 ± 0.069
ACGATCGC	0.281 ± 0.015
AGCGAACA	0.0494 ± 0.02
CTACTGGA	-0.0182 ± 0.054
TCCGTGAA	0.109 ± 0.033
GTAAAGGA	-0.211 ± 0.036
CACTTGAG	0.222 ± 0.044
ACCCCCTA	-0.0741 ± 0.0084
AGGGACAA	-0.108 ± 0.07
TAAGAGCA	-0.326 ± 0.022
GCTTAGAC	-0.21 ± 0.085
ATGAGTGG	-0.0184 ± 0.077
